Some of the results follow. Interaction screen of human proteins with wild-type SARS-CoV-2 proteins by split-DHFR complementation in yeast, 1 µg/mL methotrexate. Value = fitness of the pair (three or more lineages) minus that of the viral protein without a human partner, on a scale set by negative (0) and fused positive (1) controls, mean of up to three cultures; higher = more likely to interact. Active = false discovery rate below 0.05 (one-sided t-test) in at least one culture. Nearly all pairs are not hits, and differences among them are mostly noise (correlation between cultures about 0.3); most hits were seen in one culture only. Human sequences are the Swiss-Prot entries looked up by gene name; the clone may be another isoform. NSP2 values were corrected by the authors for a growth advantage. Listed are human proteins with a hit and a random twelfth of the others.

The record followed here is the supplement of paper PMC11741623.

To fix the notation:
B1: ARL2BP, Q9Y2Y0 (protein)
chain: MDALEGESFALSFSSASDAEFDAVVGYLEDIIMDDEFQLLQRNFMDKYYLEFEDTEENKLIYTPIFNEYISLVEKYIEEQLLQRIPEFNMAAFTTTLQHHKDEVAGDIFDMLLTFTDFLAFKEMFLDYRAEKEGRGLDLSSGLVVTSLCKSSSLPASQNNLRH
B2: B9D2, Q9BPU9 (protein)
chain: MAEVHVIGQIIGASGFSESSLFCKWGIHTGAAWKLLSGVREGQTQVDTPQIGDMAYWSHPIDLHFATKGLQGWPRLHFQVWSQDSFGRCQLAGYGFCHVPSSPGTHQLACPTWRPLGSWREQLARAFVGGGPQLLHGDTIYSGADRYRLHTAAGGTVHLEIGLLLRNFDRYGVEC
B3: HELLS, Q9NRZ9 (protein)
chain: MPAERPAGSGGSEAPAMVEQLDTAVITPAMLEEEEQLEAAGLERERKMLEKARMSWDRESTEIRYRRLQHLLEKSNIYSKFLLTKMEQQQLEEQKKKEKLERKKESLKVKKGKNSIDASEEKPVMRKKRGREDESYNISEVMSKEEILSVAKKNKKENEDENSSSTNLCVEDLQKNKDSNSIIKDRLSETVRQNTKFFFDPVRKCNGQPVPFQQPKHFTGGVMRWYQVEGMEWLRMLWENGINGILADEMGLGKTVQCIATIALMIQRGVPGPFLVCGPLSTLPNWMAEFKRFTPDIPTMLYHGTQEERQKLVRNIYKRKGTLQIHPVVITSFEIAMRDRNALQHCYWKYLIVDEGHRIKNMKCRLIRELKRFNADNKLLLTGTPLQNNLSELWSLLNFLLPDVFDDLKSFESWFDITSLSETAEDIIAKEREQNVLHMLHQILTPFLLRRLKSDVALEVPPKREVVVYAPLSKKQEIFYTAIVNRTIANMFGSSEKETIELSPTGRPKRRTRKSINYSKIDDFPNELEKLISQIQPEVDRERAVVEVNIPVESEVNLKLQNIMMLLRKCCNHPYLIEYPIDPVTQEFKIDEELVTNSGKFLILDRMLPELKKRGHKVLLFSQMTSMLDILMDYCHLRDFNFSRLDGSMSYSEREKNMHSFNTDPEVFIFLVSTRAGGLGINLTAADTVIIYDSDWNPQSDLQAQDRCHRIGQTKPVVVYRLVTANTIDQKIVERAAAKRKLEKLIIHKNHFKGGQSGLNLSKNFLDPKELMELLKSRDYEREIKGSREKVISDKDLELLLDRSDLIDQMNASGPIKEKMGIFKILENSEDSSPECLF
B4: C15orf63, Q9NX55 (protein)
chain: MATEGDVELELETETSGPERPPEKPRKHDSGAADLERVTDYAEEKEIQSSNLETAMSVIGDRRSREQKAKQEREKELAKVTIKKEDLELIMTEMEISRAAAERSLREHMGNVVEALIALTN

One test concerns the target SARS-CoV-2 M. Put plainly: yeast fitness gain over the viral ORF with no human partner (scaled fitness); higher = more likely to interact. How it is done:
(§1)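 Split mouse DHFR complementation in pooled diploid yeast: human ORFeome clones carry one fragment and viral ORFs the other; barcoded lineages compete in 1 µg/mL methotrexate and fitness is read by barcode sequencing in up to three cultures.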
With B1, the yeast fitness gain is inactive: -0.137.

As for B2, the yeast fitness gain is inactive: -0.154.

Turning to B3, the yeast fitness gain was inactive: -0.0555.

Regarding B4, the yeast fitness gain was inactive: -0.146.

The target of a further test is SARS-CoV-2 NSP1. Described as above. The protocol: as §1
B1: the yeast fitness gain was inactive: 0.0444.

As for B3, the yeast fitness gain was inactive: 0.0428.

For the molecule B4, the yeast fitness gain is inactive: -0.0645.

A further test deals with SARS-CoV-2 NSP10. The description is as above. How it is done:
as §1
As for B1, the yeast fitness gain was inactive: -0.0665.

As to B2, the yeast fitness gain was inactive: -0.00604.

Regarding B3, the yeast fitness gain was inactive: -0.0306.

As to B4, the yeast fitness gain was inactive: 0.0456.

For the next test, the target named is SARS-CoV-2 NSP12. Described as above. How it is done:
as §1
Consider B1, for which the yeast fitness gain was inactive: -0.177.

Take B2: the yeast fitness gain is inactive: -0.175.

Turning to B3, the yeast fitness gain is inactive: -0.0861.

Consider B4, for which the yeast fitness gain is inactive: -0.0345.

The target of the next test is SARS-CoV-2 NSP13. Described as above. How it is done: as §1
For B1, the yeast fitness gain is inactive: -0.0512.

On to B2, for which the yeast fitness gain was inactive: 0.0388.

On to B3, for which the yeast fitness gain was inactive: 0.0255.

For the molecule B4, the yeast fitness gain was inactive: 0.0472.

For a further test, the target named is SARS-CoV-2 NSP15. Described as above. The protocol: as §1
Regarding B1, the yeast fitness gain was inactive: 0.00879.

Take B3: the yeast fitness gain was inactive: 0.00945.

On to B4, for which the yeast fitness gain is inactive: 0.0962.

For another test, the target named is SARS-CoV-2 NSP16. The test is described as above. How it is done: as §1
For the molecule B1, the yeast fitness gain was inactive: -0.024.

Consider B2, for which the yeast fitness gain was inactive: 0.00791.

On to B3, for which the yeast fitness gain was inactive: -0.0443.

With B4, the yeast fitness gain was inactive: -0.0453.

The target in a further test is SARS-CoV-2 NSP2. The description is as above. The protocol: as §1
Consider B1, for which the yeast fitness gain was inactive: -0.0507.

Take B2: the yeast fitness gain is inactive: -0.0825.

Regarding B3, the yeast fitness gain was inactive: -0.141.

As to B4, the yeast fitness gain was inactive: 0.0375.

The target in the next test is SARS-CoV-2 NSP4. Described as above. How it is done: as §1
As for B1, the yeast fitness gain was inactive: -0.14.

As to B3, the yeast fitness gain was inactive: -0.0312.

With B4, the yeast fitness gain is inactive: 0.101.

In the next test the target is SARS-CoV-2 NSP5. The test is described as above. How it is done: as §1
On to B1, for which the yeast fitness gain is inactive: 0.0114.

Consider B2, for which the yeast fitness gain is inactive: 0.0996.

Take B3: the yeast fitness gain is inactive: 0.0276.

Consider B4, for which the yeast fitness gain was inactive: -0.063.

In a further test the target is SARS-CoV-2 NSP6. The test is described as above. How it is done:
as §1
Regarding B1, the yeast fitness gain was inactive: -0.105.

Take B3: the yeast fitness gain is inactive: 0.0105.

For B4, the yeast fitness gain was inactive: 0.0168.

Another test has as its target SARS-CoV-2 NSP7. The description is as above. The protocol:
as §1
Take B1: the yeast fitness gain is inactive: 0.0306.

Turning to B2, the yeast fitness gain is inactive: -0.0151.

On to B3, for which the yeast fitness gain was inactive: -0.0638.

Turning to B4, the yeast fitness gain was inactive: 0.0374.

The next test concerns the target SARS-CoV-2 NSP8. Described as above. The protocol: as §1
With B1, the yeast fitness gain was inactive: -0.0942.

With B2, the yeast fitness gain is inactive: -0.0741.

Turning to B3, the yeast fitness gain was inactive: 0.0313.

On to B4, for which the yeast fitness gain is inactive: -0.0965.

The next test deals with SARS-CoV-2 NSP9. The test is described as above. How it is done: as §1
As to B1, the yeast fitness gain was inactive: 0.00507.

For B2, the yeast fitness gain was inactive: -0.142.

On to B3, for which the yeast fitness gain is inactive: 0.0758.

With B4, the yeast fitness gain is inactive: -0.136.

Another test concerns the target SARS-CoV-2 ORF10. Described as above. The protocol:
as §1
With B1, the yeast fitness gain was inactive: 0.0368.

With B2, the yeast fitness gain is inactive: -0.0518.

In the case of B3, the yeast fitness gain is inactive: -0.00964.

Turning to B4, the yeast fitness gain was inactive: -0.0898.

The next test has as its target SARS-CoV-2 ORF3A. The description is as above. The protocol:
as §1
Consider B1, for which the yeast fitness gain is inactive: 0.0667.

In the case of B2, the yeast fitness gain was inactive: 0.0649.

As for B3, the yeast fitness gain was inactive: 0.0831.

Another test addresses SARS-CoV-2 ORF3B. Described as above. The protocol: as §1
As for B1, the yeast fitness gain is inactive: -0.0743.

With B2, the yeast fitness gain is inactive: 0.008.

With B3, the yeast fitness gain is inactive: -0.00438.

In the case of B4, the yeast fitness gain is inactive: 0.0637.

The target of another test is SARS-CoV-2 ORF6. Described as above. The protocol:
as §1
On to B1, for which the yeast fitness gain is inactive: -0.00448.

Regarding B2, the yeast fitness gain was inactive: 0.0496.

For the molecule B3, the yeast fitness gain is inactive: -0.0127.

Take B4: the yeast fitness gain is inactive: 0.0278.

A further test concerns the target SARS-CoV-2 ORF7A. The test is described as above. How it is done: as §1
Regarding B1, the yeast fitness gain was inactive: -0.0307.

Regarding B2, the yeast fitness gain is inactive: -0.0254.

As for B3, the yeast fitness gain was inactive: -0.1.

B4: the yeast fitness gain was inactive: -0.0632.

A further test addresses SARS-CoV-2 ORF7B. The description is as above. How it is done: as §1
Regarding B1, the yeast fitness gain was inactive: 0.0216.

Take B2: the yeast fitness gain is inactive: -0.0731.

In the case of B3, the yeast fitness gain was inactive: 0.0344.

Take B4: the yeast fitness gain is inactive: -0.0902.

A further test deals with SARS-CoV-2 ORF8. Described as above. How it is done: as §1
For B1, the yeast fitness gain is inactive: -0.0189.

As to B2, the yeast fitness gain is inactive: -0.076.

Consider B3, for which the yeast fitness gain is inactive: 0.0318.

Turning to B4, the yeast fitness gain is inactive: 0.039.

The next test concerns the target SARS-CoV-2 ORF9B. Described as above. The protocol:
as §1
As to B1, the yeast fitness gain is inactive: -0.0342.

Regarding B2, the yeast fitness gain is inactive: -0.0966.

For the molecule B3, the yeast fitness gain was inactive: -0.019.

With B4, the yeast fitness gain was inactive: -0.00585.

In another test the target is SARS-CoV-2 ORF9Bwu (the 73-codon ORF). Described as above. The protocol: as §1
Turning to B1, the yeast fitness gain was inactive: -0.0676.

Consider B2, for which the yeast fitness gain is inactive: 0.0782.

For B3, the yeast fitness gain was inactive: -0.0228.

As to B4, the yeast fitness gain was inactive: 0.0623.

For another test, the target named is SARS-CoV-2 S. The description is as above. How it is done: as §1
B1: the yeast fitness gain is inactive: 0.026.

B2: the yeast fitness gain is inactive: 0.0144.

B3: the yeast fitness gain is inactive: 0.0133.

With B4, the yeast fitness gain is inactive: 0.00366.

For a further test, the target named is SARS-CoV-2 N. The test is described as above. How it is done: as §1
Turning to B2, the yeast fitness gain is inactive: 0.0778.

Another test deals with SARS-CoV-2 NSP14. Described as above. The protocol:
as §1
For the molecule B2, the yeast fitness gain is inactive: -0.263.

In the case of B4, the yeast fitness gain was inactive: 0.00581.
